These results are taken from PMC6919601, “Identification of Plasmodium dipeptidyl aminopeptidase allosteric inhibitors by high throughput screening” (PLoS ONE, 2019).

Among all 110,000 compounds or so, about 230 (0.21%) showed an effect of 50% or more. The list shows a part of the results.
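Further: 30 min substrate incubation versus DMSO and 10 µM JCP410 controls.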

For the experiment, the target named is DPAP1 (Plasmodium falciparum, UniProt Q8IIJ9). The experiment in a line: primary screen, percent inhibition; read by cleavage of a fluorogenic dipeptide substrate; higher = more effect of the substance. Also on record: species or system P. falciparum D10 trophozoite lysates; single well.
DPAP1, sequence (Q8IIJ9 whole entry, looked up): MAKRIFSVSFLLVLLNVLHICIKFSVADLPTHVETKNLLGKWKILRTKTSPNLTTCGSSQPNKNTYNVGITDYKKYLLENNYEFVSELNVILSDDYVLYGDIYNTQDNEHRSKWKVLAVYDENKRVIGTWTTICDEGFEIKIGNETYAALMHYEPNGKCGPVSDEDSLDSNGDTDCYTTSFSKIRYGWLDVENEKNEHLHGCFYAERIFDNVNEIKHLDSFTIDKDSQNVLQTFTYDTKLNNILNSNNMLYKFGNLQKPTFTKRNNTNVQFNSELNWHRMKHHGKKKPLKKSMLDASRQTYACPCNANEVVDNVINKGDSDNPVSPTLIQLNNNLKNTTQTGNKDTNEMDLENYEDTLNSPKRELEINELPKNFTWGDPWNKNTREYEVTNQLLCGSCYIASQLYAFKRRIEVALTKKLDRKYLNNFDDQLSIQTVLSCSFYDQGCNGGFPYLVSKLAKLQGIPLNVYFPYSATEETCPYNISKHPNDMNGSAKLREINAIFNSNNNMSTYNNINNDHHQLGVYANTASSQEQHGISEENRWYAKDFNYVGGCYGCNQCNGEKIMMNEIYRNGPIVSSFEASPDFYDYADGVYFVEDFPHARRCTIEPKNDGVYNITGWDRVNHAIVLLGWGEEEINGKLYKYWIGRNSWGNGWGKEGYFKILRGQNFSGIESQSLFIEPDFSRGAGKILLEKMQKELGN
On to `CCOC(=O)N1CCN(Cc2c(F)cccc2F)CC1`, for which the “% Inhibition @ 10 uM” value is -1.78%.

For `Cc1ccc(C(=O)c2cn(C)c3nc(C)ccc3c2=O)cc1`, the “% Inhibition @ 10 uM” value is reported as -3.85%.

For the compound `CS(=O)(=O)Nc1ccccc1C(=O)NCc1ccco1`, the “% Inhibition @ 10 uM” value was 1.27%.

Turning to `C=CCN1C(=O)C(CC(=O)Nc2cccc(C)c2)S/C1=N\c1ccc(C(C)=O)cc1` (stereo not shown), the “% Inhibition @ 10 uM” value was -0.795%.

On to `CCOCCN1CCN(C2c3ccccc3CSc3ccccc32)CC1` (stereo not shown), for which the “% Inhibition @ 10 uM” value is listed as 3.53%.

As to `COC(=O)C1=C(C)NC(=O)/C1=C\c1ccccc1`, the “% Inhibition @ 10 uM” value is listed as 1.57%.

With `CCCc1cc(O)c2c(O)n(-c3ccccc3)nc2n1`, the “% Inhibition @ 10 uM” value is -3.33%.

As for `CC(=O)C1C2CC(S)=NC1(C)Oc1ccc(Br)cc12` (stereo not shown), the “% Inhibition @ 10 uM” value is recorded as -1.8%.

On to `CCOc1ccccc1CNCc1cccnc1`, for which the “% Inhibition @ 10 uM” value is on record as -3.95%.

Turning to `COc1ccc(OC)c(CNCCc2ccccc2)c1`, the “% Inhibition @ 10 uM” value is 0.661%.

As to `COc1cc2nc(SCc3cc(=O)n4ccccc4n3)n3nc(-c4ccccc4)nc3c2cc1OC`, the “% Inhibition @ 10 uM” value is on record as -2.29%.

On to `CN(CC(=O)NCCCc1ccccc1)S(=O)(=O)c1c[nH]cn1`, for which the “% Inhibition @ 10 uM” value is given as -3.53%.

With `N#CCNC(=O)[C@@H](Cc1c(F)cccc1F)NC(=O)OCc1ccccc1`, the “% Inhibition @ 10 uM” value is reported as -3.14%.

On to `Cc1nn(-c2ccccc2)c(N)c1-c1ccccc1`, for which the “% Inhibition @ 10 uM” value stood at 2.22%.

Take `CCOc1ccccc1CNC(=O)c1noc2c1CCc1sccc1-2`: the “% Inhibition @ 10 uM” value is given as -0.12%.

On to `CSc1ccc(S(=O)(=O)NCc2cccnc2)cc1`, for which the “% Inhibition @ 10 uM” value is -8.72%.

Take `COC(=O)c1ccccc1S(=O)(=O)N(CCCN1CCOCC1)Cc1cccs1`: the “% Inhibition @ 10 uM” value is -3.12%.

For the compound `CCN(CC)CCn1cnc2c1c(=O)[nH]c(=O)n2Cc1ccccc1`, the “% Inhibition @ 10 uM” value is -1.22%.

In the case of `Sc1nc(NCCc2ccccc2Cl)c2ccccc2n1`, the “% Inhibition @ 10 uM” value was 5.74%.

With `Cc1cccc(-c2nc3sc(C)cc3c(=O)o2)c1`, the “% Inhibition @ 10 uM” value was -5.15%.

For the compound `CCc1cc(C(=O)O)c(NC(=O)/C=C/c2ccc(OC)cc2)s1`, the “% Inhibition @ 10 uM” value is -2.26%.

For `Cc1ccc(CN2CCN(Cc3ccco3)CC2)cc1`, the “% Inhibition @ 10 uM” value was -1.55%.

Consider `N#CC1=C(N)Oc2[nH]nc(-c3ccccc3)c2C12C(=O)Nc1ccc(Cl)cc12` (stereo not shown), for which the “% Inhibition @ 10 uM” value turned out to be 0.746%.

As for `Cc1ccc(C(=O)Nc2ccc(NC(=O)C(F)(F)F)cc2)cc1`, the “% Inhibition @ 10 uM” value is on record as -6.82%.

For `CCOc1ccc(C(=O)NCC(C)C)cc1`, the “% Inhibition @ 10 uM” value is -1.36%.

Turning to `O=C(c1cc2nc(-c3cccs3)cc(C(F)(F)F)n2n1)N1CCCCC1`, the “% Inhibition @ 10 uM” value is given as -4.15%.

Consider `Cc1ccc2nc(NC(=O)c3c(O)c4ccccc4n(C)c3=O)sc2c1`, for which the “% Inhibition @ 10 uM” value is reported as 11.2%.

As for `Cc1c2cnn(CC(=O)NCCN3CCCCCC3)c(=O)c2c(C)n1Cc1ccccc1F`, the “% Inhibition @ 10 uM” value is -2.17%.

For `COc1ccc(-c2nc(-c3cccnc3)[nH]c2-c2ccc(OC)cc2)cc1`, the “% Inhibition @ 10 uM” value is -3.08%.

With `CC(CCc1ccc(O)cc1)NCCC1=CCCCC1` (stereo not shown), the “% Inhibition @ 10 uM” value stood at 1.57%.

In the case of `Cc1ccc(S(=O)(=O)N2CCOCC(=O)NCCOCCNC(=O)COCC2)cc1`, the “% Inhibition @ 10 uM” value was -9.6%.

Regarding `N#CC1=C(N)Oc2[nH]nc(-c3ccccc3)c2C1c1ccccc1Cl` (stereo not shown), the “% Inhibition @ 10 uM” value was found to be 4.32%.

As to `CCc1cc2c(cc3c(=O)n(CC(=O)NCc4ccc5c(c4)OCO5)nc(CC)n32)s1`, the “% Inhibition @ 10 uM” value was found to be 3.29%.

For `Cc1ccc(C)c(CN2CC(C)OC(C)C2)c1` (stereo not shown), the “% Inhibition @ 10 uM” value was -4.3%.

With `CO/N=C(/C)c1ccc(OCc2ccccc2)cc1`, the “% Inhibition @ 10 uM” value was 0.997%.

On to `Sc1ccccc1-c1nc(Cc2ccccc2)no1`, for which the “% Inhibition @ 10 uM” value is listed as 3.44%.

On to `Cc1nn(C)c(C(=O)NC2C3CC4CC(C3)CC2C4)c1Cl` (stereo not shown), for which the “% Inhibition @ 10 uM” value is reported as -0.725%.

Take `Nc1nc(O)c2nccnc2n1`: the “% Inhibition @ 10 uM” value is on record as 1.91%.

Turning to `c1ccc(-c2ccc(N3CCCCCC3)nn2)cc1`, the “% Inhibition @ 10 uM” value is 0.51%.

As to `COc1cccc(-c2cc(C(=O)NCC3CCCO3)on2)c1` (stereo not shown), the “% Inhibition @ 10 uM” value is -3.27%.

With `COc1ccc(-c2nc(-c3ccc(Br)cc3)c(-c3ccccc3Br)[nH]2)cc1`, the “% Inhibition @ 10 uM” value turned out to be 4.61%.

Regarding `O=C(CCN1CCCC1)Nc1c2c(cc3c1CCC3)CCC2`, the “% Inhibition @ 10 uM” value is recorded as 0.163%.

Consider `O=C(c1ccccc1)c1ccc2c(c1)NC=c1c([nH]c(=O)n(-c3ccccc3)c1=O)=N2`, for which the “% Inhibition @ 10 uM” value is on record as -2.56%.

In the case of `O=C(NCc1cccnc1)c1ccc2ccccc2c1`, the “% Inhibition @ 10 uM” value is listed as -9.25%.

`COc1ccc2ccccc2c1C1C(C#N)=C(N)Oc2[nH]nc(C)c21` (stereo not shown): the “% Inhibition @ 10 uM” value is listed as -2.45%.

As to `FC(F)(F)c1cc(-c2cccs2)[nH]n1`, the “% Inhibition @ 10 uM” value came to 0.558%.

On to `Clc1cccc(OCCN2CCCCC2)c1`, for which the “% Inhibition @ 10 uM” value is 0.565%.

With `OCCOCCN1CCN(C2CCCCCC2)CC1`, the “% Inhibition @ 10 uM” value is 3.48%.

Regarding `C=CCOC(=O)c1cc(-c2ccc(C=C3C(=O)N(C)C(=O)N(C)C3=O)o2)ccc1Cl`, the “% Inhibition @ 10 uM” value is given as 5.94%.

Regarding `CCOC(=O)c1cn(C)c(C(=O)OCC)c1O`, the “% Inhibition @ 10 uM” value stood at 1.72%.

In the case of `N#CC1=C(N)Oc2c(c(O)nc3ccccc23)C1c1ccncc1` (stereo not shown), the “% Inhibition @ 10 uM” value is given as 6.24%.

For `COc1cccc(C(=O)Nc2ccc(-c3ccc(NC(=O)c4cccc(OC)c4)cc3)cc2)c1`, the “% Inhibition @ 10 uM” value turned out to be 5.85%.
